# Experimental data published in the supplement of paper PMC4466236.
# Over roughly 33,000 sequences, “E-score (dimensionless, -0.5 to 0.5)” has its median near -0.058; the highest 2% begin near 0.35. The list shows a part of the results.
# Tested on: MvaT
# Test: PBM 8-mer E-score (mean of HK and ME arrays) (E-score (dimensionless, -0.5 to 0.5)); higher = stronger relative binding preference; most listed sequences are background and not binding sites
# How it was run: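 Full-length P. aeruginosa MvaT carrying an N-terminal glutathione S-transferase tag was tested by protein binding microarray following a previously described protocol. Two universal double-stranded 60-mer arrays, ME and HK, were used, each with a constant 25-mer primer region and a variable 35-mer region covering all 8-mers. The rank-based E-score is the mean of the two arrays, parsed with a custom script. Its range runs from -0.5 to 0.5 for each 8-mer.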
row,Sequence,PBM 8-mer E-score
1,ATATAGGC,0.242
2,ACCGAAAA,0.114
3,CAACAAGC,-0.0993
4,ACAGCGAG,-0.176
5,CCACGTGA,-0.119
6,TGATTTAA,0.347
7,AAAGTCTC,0.128
8,GCAATTGC,0.195
9,AACGTGGG,-0.184
10,GGATTGTA,0.094
11,ACGGCGCC,-0.169
12,CCTCTCGA,-0.199
13,ATGCTCTG,-0.131
14,AGCATCCG,-0.292
15,CAATGTTC,-0.0136
16,GGGACTTA,0.109
17,CTACGAAG,-0.109
18,CAACCCTG,-0.133
19,ACCTACGT,-0.102
20,ATCGCACA,0.126
21,GCGCATGA,-0.0441
22,CATGCACA,-0.000712
23,GTTCATCA,-0.00275
24,CTGATATA,0.358
25,GCAGATAC,-0.161

row,Sequence,PBM 8-mer E-score
1,AGCACTAG,-0.0135
2,AGCTGACT,-0.113
3,CTGTAGTA,0.0877
4,CTGCGAAA,-0.0653
5,CGATCACC,-0.196
6,ACGACTCT,0.0428
7,CATCTGGA,-0.234
8,AACGTGCA,0.0721
9,GATAGCCC,-0.255
10,CCGGCGTA,-0.0719
11,GATTTTTA,0.133
12,CCTTCGAG,-0.305
13,CGGTAGCC,-0.317
14,CTGACTAA,0.0191
15,GGGTATAA,0.258
16,CGATACCA,-0.105
17,ACATTCTA,0.162
18,AACCGTGC,-0.122
19,CCAATAGA,-0.0274
20,CACTCTGA,-0.05
21,CAGTTCGA,0.0448
22,ATTGTTGG,0.14
23,AGTGGGAA,-0.142
24,CTGTATCA,0.0667
25,GAAGAATC,-0.0213

row,Sequence,PBM 8-mer E-score
1,GAGGCTGC,-0.316
2,CGAGCCCC,-0.313
3,GACTACCA,-0.139
4,CCGGGTAA,-0.191
5,ATTCCCTG,-0.116
6,CGCCTGAC,-0.314
7,GTCGAGCA,-0.194
8,GATCCGCC,-0.198
9,ACTGTGGA,-0.1
10,AGGGAGGA,-0.202
11,AAGCGCAA,0.148
12,AGACCAGA,-0.0764
13,GTAGCTAC,-0.1
14,CCGCCTAG,-0.263
15,AATGGTCC,0.006
16,AGCAGTAG,-0.0568
17,CGGAACTA,0.0106
18,ATTGCTAA,0.2
19,CACATTAG,0.162
20,GAATATCC,0.0901
21,AGACGACT,-0.159
22,GGATATCC,0.0153
23,CTTGGATC,-0.189
24,ACGCAACT,0.159
25,GAAGATAA,0.0746

row,Sequence,PBM 8-mer E-score
1,CAAGTCAG,-0.0705
2,AACTTAAG,0.333
3,AGGGAAAG,0.00229
4,CGGTGGAA,-0.141
5,GACCGATA,-0.00788
6,ATGGAGTC,-0.00425
7,GAACTGCC,-0.0924
8,CCCGATCG,-0.198
9,ATCTGCGA,-0.127
10,ATGACAGC,-0.0847
11,GAGGAAGC,-0.266
12,GATGGAGA,-0.142
13,CCTCCCTA,-0.302
14,CTCAGCTC,-0.259
15,CGACCAAC,-0.0331
16,AATACTAG,0.278
17,AAGATCTC,-0.101
18,GGGAACAC,-0.198
19,CTCTACCC,-0.0844
20,ACGGGGCC,-0.145
21,CTTTAAGC,0.0372
22,CTCGATCC,-0.131
23,ACCCATGC,-0.165
24,TCATCAGA,-0.0405
25,AGACACCG,-0.0315

row,Sequence,PBM 8-mer E-score
1,TATTTCGA,0.241
2,AACCAACG,-0.019
3,GGTGGTAC,-0.153
4,GGCTGCCA,-0.173
5,CCCCGTAC,-0.216
6,AACGGAGC,-0.164
7,CACACGTC,-0.15
8,AAGTCACT,-0.024
9,ACTCCCGG,-0.0571
10,CAGATGTC,-0.245
11,ATTCTGAG,-0.0321
12,TATTGTCA,0.266
13,ATTTCACA,0.296
14,ACATGCCT,0.058
15,CATCTTCG,-0.126
16,GTCACTGA,0.00615
17,CTTACAAA,0.146
18,ACCGCCGA,-0.14
19,ACACGAAA,0.155
20,GTCAATTA,0.164
21,ACGGTGCG,-0.242
22,TAGTTATA,0.402
23,GACAATGC,-0.0838
24,GAGATCCA,-0.143
25,CGCGATCC,-0.146

row,Sequence,PBM 8-mer E-score
1,AATTCCGA,0.0741
2,AGATCTGG,-0.154
3,GGCAACAA,0.129
4,AGAGATTC,-0.114
5,AGCAGCGC,-0.29
6,GGTGAGTA,0.00574
7,CGCGCCAC,-0.224
8,AGACCCAA,-0.125
9,CCAGCGTC,-0.0519
10,CACTCATC,0.00466
11,AGTAGCAA,0.111
12,CAAAACCC,-0.218
13,AGACCACG,-0.145
14,GTGGAAAA,-0.0942
15,GTGCGAAA,0.00852
16,AGGACTTC,-0.00568
17,AAACAAGA,0.166
18,ACTGACGG,-0.126
19,ACTCCCTC,-0.122
20,ACCATTGG,-0.248
21,GACGCATA,0.132
22,CATGAATA,0.235
23,AACGCCTA,-0.157
24,ACACACTC,0.0301
25,AGTCCTCG,-0.249

row,Sequence,PBM 8-mer E-score
1,AGGCCTGC,-0.212
2,GGAGCGGA,-0.192
3,CGGGAACG,-0.269
4,ACCCCGAG,-0.293
5,ATCACACA,0.187
6,CATCGACA,-0.0893
7,AAGTGTGG,0.136
8,AAGTCGCC,-0.179
9,GTGGGCAA,-0.0048
10,GCGCTAAC,-0.049
11,CCTGGACC,-0.233
12,ACCCCACG,-0.199
13,ATCGGAAC,-0.116
14,CAGGCAAA,-0.0182
15,AAATCCCC,-0.192
16,ACGTCTAC,-0.155
17,CCAGAGCG,-0.269
18,AACTTGGC,0.112
19,CTAACTAA,0.286
20,AGCCTGAA,-0.273
21,ATGCTCGC,-0.134
22,CATCGAGA,-0.0116
